# Over roughly 33,000 sequences, “E-score (-0.5 to 0.5)” has its median near -0.054; the highest 2% begin near 0.35. This is one part of the list.
# Target: T1, Stb5 (UniProt P38699)
# T1 sequence: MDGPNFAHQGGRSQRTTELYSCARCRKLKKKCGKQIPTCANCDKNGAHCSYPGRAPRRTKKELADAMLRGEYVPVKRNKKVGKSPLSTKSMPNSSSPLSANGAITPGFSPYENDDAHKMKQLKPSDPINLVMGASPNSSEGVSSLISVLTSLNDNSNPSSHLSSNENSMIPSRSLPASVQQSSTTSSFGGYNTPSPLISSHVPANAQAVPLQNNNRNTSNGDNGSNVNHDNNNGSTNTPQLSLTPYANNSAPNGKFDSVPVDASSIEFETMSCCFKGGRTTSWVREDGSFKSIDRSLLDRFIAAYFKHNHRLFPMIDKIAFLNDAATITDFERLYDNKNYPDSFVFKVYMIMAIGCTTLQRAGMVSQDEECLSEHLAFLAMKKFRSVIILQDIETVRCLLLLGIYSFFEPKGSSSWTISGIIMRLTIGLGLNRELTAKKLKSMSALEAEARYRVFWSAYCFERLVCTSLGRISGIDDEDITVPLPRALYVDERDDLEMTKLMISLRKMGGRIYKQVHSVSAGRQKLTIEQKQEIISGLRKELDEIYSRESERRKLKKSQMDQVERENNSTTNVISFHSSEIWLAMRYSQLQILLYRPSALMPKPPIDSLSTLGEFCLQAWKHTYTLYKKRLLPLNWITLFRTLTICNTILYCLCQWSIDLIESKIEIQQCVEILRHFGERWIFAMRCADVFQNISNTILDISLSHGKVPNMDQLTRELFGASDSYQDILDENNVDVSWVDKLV
# Assay: PBM E-score (8-mer binding enrichment) (E-score (-0.5 to 0.5)); higher = stronger / more preferred TF binding; most listed sequences are background and not binding sites
# Conditions: protein concentration: 200 nM; construct: GST-full length
# Method in brief: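 E-scores (a modified Wilcoxon-Mann-Whitney statistic) were assigned by the Universal PBM Analysis Suite to every ungapped eight-base word pooled with its reverse complement. The input came from universal all-10-mer Agilent arrays made double-stranded by primer extension and probed with GST-tagged yeast transcription factors at about 100-200 nM. Fluorescent anti-GST detected bound protein, and masliner normalised the scans.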
row,Sequence,PBM E-score
1,ACTACGGA,0.0755
2,AACACTGC,-0.157
3,TCTGGTCA,-0.187
4,ATAAAGAA,-0.0875
5,ACTCCGAA,0.328
6,AAAAGGTA,-0.0845
7,ACTATTAG,-0.0833
8,CATGTAAA,-0.0828
9,TAGTCATA,-0.0911
10,GGAAGACA,-0.0137
11,AATACCAT,-0.0252
12,CTACCCCA,-0.181
13,AGCAGCGG,0.328
14,ACCGCTCT,0.226
15,CTGATCTA,-0.0871
16,GTGCTGTA,0.0244
17,GAGACCGC,0.311
18,CGCTTGTC,0.0372
19,CATGAATC,-0.0557
20,CCAGCATC,-0.129
21,AATCGTAA,-0.0854
22,CAGCTTAA,-0.169

row,Sequence,PBM E-score
1,GAACCTGA,-0.126
2,ACACGACT,-0.213
3,GGACAACA,0.0282
4,ACCTTCGA,-0.146
5,CATCGCAA,-0.228
6,AGATACAT,-0.2
7,TCACGGGA,0.177
8,TGCGCCCA,0.0103
9,TGACAAAA,-0.159
10,ACCCCTCA,-0.0127
11,CCCGTCAG,0.201
12,AACTGTGA,-0.19
13,GGAAAGTA,0.00459
14,GGACACCC,-0.0607
15,AAATGAGT,0.0915
16,ACGAAAGT,-0.225
17,GCAAGCGC,0.0311
18,AACCAATC,-0.105
19,AAGCGAGC,0.0454
20,TGGACCCA,-0.218
21,ATACATAG,-0.0217
22,CATGACAG,-0.16

row,Sequence,PBM E-score
1,ATAAAACC,0.263
2,CTACGCGA,-0.149
3,AACTTCAA,-0.0353
4,ATAAGAGA,-0.00231
5,GTGAAATA,0.0339
6,AGTATGGG,-0.222
7,ATGTCAAG,-0.0867
8,AAATAGGC,0.168
9,CTAATAGC,-0.0179
10,CCCAAATA,-0.247
11,GAAGACCC,0.0303
12,TAAATGGA,-0.12
13,AAGTGCGC,0.243
14,GTATAAAC,0.0899
15,GAGGCGCA,0.00856
16,CATAAGAA,-0.0277
17,GGAGCCTA,-0.125
18,GCGAACCA,-0.113
19,CCACGCAG,-0.184
20,ATGAAAGG,0.0036
21,AAAGATGC,-0.214
22,TAAGAAGA,0.0304

row,Sequence,PBM E-score
1,ATACCGAT,0.353
2,AATTATAA,0.164
3,TACCTTGA,-0.0542
4,CGACTCCC,-0.0289
5,ACCATACT,-0.0978
6,TCGCGGCA,0.267
7,CACGACTG,-0.173
8,CCTACGGC,0.109
9,ATGCGATC,-0.0694
10,GATCATAA,-0.0324
11,AGTCCTAC,-0.101
12,AAACATAC,-0.0269
13,CATTAATC,0.0248
14,AGGACCAT,-0.106
15,GGAGGTCA,-0.114
16,CGAGCTAC,-0.127
17,AGGTTGCG,-0.21
18,TACGGTCA,0.0702
19,ACCGTTGC,0.204
20,ACCCATGA,-0.023

# Source: the supplement of paper PMC3334620
